The campaign covered roughly 150,000 compounds. About 540 (0.36%) showed an effect of 50% or more. The list shows a part of the results.
The compounds below were run on Plasmodium falciparum (assay: Primary screen in NF54 nanoGlo assay, in single point, at 2uM, 72h; a lower Z score goes with more inhibition). Details: timepoint 72 hour.
Assay type: functional, Erythrocyte
With `Cc1cnc(N2CCN([C@H]3CCS(=O)(=O)C3)CC2)nc1` the “% Inhibition” value was 3% and the Z score was -0.39.
For `COCC[C@H]1COCCN1C(=O)Cc1ccoc1`, the “% Inhibition” value was -12% and the Z score was 2.26.
For `O=C(NCc1ccc(F)cc1)c1n[nH]c2c1CN(C(=O)c1ccoc1)CC2`, the “% Inhibition” value was 10% and the Z score was -1.41.
In the case of `O=C(Nc1ccc2c(c1)OCO2)c1ccc(=O)n(Cc2ccc(Cl)cc2)c1`, the “% Inhibition” value was -15% and the Z score was 1.88.
`COCCC1(CNC(=O)Nc2ccccc2N(C)C)CC1` was tested, and the “% Inhibition” value was 27% and the Z score was -3.03.
`CC(C)Cc1cc(C(=O)NC[C@H]2CN(C)C(=O)CO2)nc(N)n1` was tested, and the “% Inhibition” value was -2% and the Z score was 0.45.
In the case of `O=C(CN1CCC[C@H](O)C1)N1CCN(Cc2ccccc2)CC1`, the “% Inhibition” value was -6% and the Z score was 0.91.
For `COc1c[nH]c(C(=O)NC2CCCC2)cc1=O`, the “% Inhibition” value was -5% and the Z score was 0.85.
In the case of `OCCOc1ccccc1CN1CC[C@H](c2ccc(F)cc2)[C@@H](O)C1`, the “% Inhibition” value was 5% and the Z score was -0.92.
For `COc1cc(OC)cc(C(=O)N2CC[C@]3(OC)CC[C@H](OC)C[C@H]23)c1`, the “% Inhibition” value was -13% and the Z score was 1.72.
`CCOC(=O)N1CCC(NC(=O)c2cc3ccccc3o2)CC1` was tested, and the “% Inhibition” value was -9% and the Z score was 1.59.
With `CCC[C@H]1CN(C(=O)c2cnc(O)cn2)C[C@@H]1N` the “% Inhibition” value was -7% and the Z score was 1.28.
For `O=C([C@@H]1Cc2[nH]cnc2CN1Cc1ccc(Cl)cc1)N1CCOCC1`, the “% Inhibition” value was 4% and the Z score was -0.64.
With `C[C@H]1CS(=O)(=O)CCN1C(=O)c1csc(-c2c(F)cccc2F)n1` the “% Inhibition” value was -12% and the Z score was 1.44.
For `O=C(NCc1nc(C2CC2)no1)Nc1ccccc1C(F)(F)F`, the “% Inhibition” value was -9% and the Z score was 1.16.
For `O=C(O)C1CC2CCCCC2N1Cc1ccc(Cl)c(Cl)c1` (stereo not drawn), the “% Inhibition” value was -8% and the Z score was 1.17.
In the case of `C=CCN1CCC[C@H]1C(=O)N(Cc1cnn(C)c1)C(C)C`, the “% Inhibition” value was -10% and the Z score was 1.39.
With `O=C(Nc1cnn(C[C@H]2COc3ccccc3O2)c1)c1ccncc1` the “% Inhibition” value was 25% and the Z score was -3.2.
In the case of `COc1ccc(CC(=O)Nc2cc(C3CC3)nn2-c2nc(C)cc(=O)[nH]2)cc1`, the “% Inhibition” value was 0% and the Z score was -0.01.
With `Cc1nc(CN(C)Cc2ccc([C@@H]3CCCCO3)s2)cs1` the “% Inhibition” value was -26% and the Z score was 2.33.
With `CC(=O)N1CCC(CC(=O)N2CC(n3ccnc3C(C)C)C2)CC1` the “% Inhibition” value was 6% and the Z score was -1.1.
For `CCCc1ccc(CN(C)Cc2n[nH]c(=O)[nH]2)s1`, the “% Inhibition” value was -12% and the Z score was 1.78.
For `O=C(N[C@H]1CCCN(C2CCCC2)C1)N1CCN(c2ccccc2O)CC1`, the “% Inhibition” value was 5% and the Z score was -0.66.
For `CC(C)(C)OC(=O)[C@H](NCC(O)C(F)(F)F)c1ccccc1` (stereo partly drawn), the “% Inhibition” value was 3% and the Z score was -0.67.
